Reference: PubChem BioAssay AID588342 (National Center for Advancing Translational Sciences (NCATS), 2011)
Screen size: about 360,000 compounds; about 25,000 (6.9%) were called active. The shares of active, inactive and inconclusive entries below differ from those in the screen. Calls come from the whole dose curve; as a rule, active = well fitted inhibition curve with a large enough effect; inconclusive = small, poorly fitted or top-dose-only effect; inactive = flat fitted curve, though single readings scatter. Potencies beside an inconclusive call are fits to weak or partial responses and may not hold up.

These molecules were tested against Luciferin 4-monooxygenase (Photinus pyralis) (UniProt P08659) (assay: qHTS profiling assay for firefly luciferase inhibitor/activator using purifed enzyme and Km concentrations of substrates (counterscreen for miR-21 project)). Details: purified FLuc, luminescence inhibition; series mostly up to 57.5 µM.
Sequence of UniProt P08659 (P08659 whole entry, looked up): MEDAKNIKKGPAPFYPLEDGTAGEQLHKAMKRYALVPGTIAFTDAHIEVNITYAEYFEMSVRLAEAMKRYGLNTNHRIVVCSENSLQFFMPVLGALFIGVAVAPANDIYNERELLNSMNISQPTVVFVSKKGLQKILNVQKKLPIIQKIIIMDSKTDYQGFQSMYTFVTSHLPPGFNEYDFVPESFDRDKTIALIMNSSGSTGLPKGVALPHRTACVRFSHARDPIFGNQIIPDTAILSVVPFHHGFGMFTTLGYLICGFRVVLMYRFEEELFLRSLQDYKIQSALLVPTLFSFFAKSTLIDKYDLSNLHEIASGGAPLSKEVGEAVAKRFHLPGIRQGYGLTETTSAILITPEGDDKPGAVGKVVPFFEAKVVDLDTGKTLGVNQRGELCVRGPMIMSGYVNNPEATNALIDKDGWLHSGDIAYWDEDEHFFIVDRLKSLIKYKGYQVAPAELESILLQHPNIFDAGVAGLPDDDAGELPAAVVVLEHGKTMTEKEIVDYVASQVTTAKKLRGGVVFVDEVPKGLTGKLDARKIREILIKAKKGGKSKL
Excerpt: MLPCN Grant: 1 R21 NS059478-01 (miR-21 grant) Assay Provider: NCGC NCGC Assay Overview: Firefly (Photinus pyralis) luciferase is one of the most commonly used transcriptional reporters for a number of reasons. It is considered one of the more dynamically responsive reporters -that is, responsive to changes in reporter transcription - as it requires no post-translational modifications and is enzymatically active directly after protein synthesis (Wood, 1998). Additionally, the half-life of the luciferase protein is short relative to other reporter-gene products (Wood, 1995). Whereas reporters with long half-lives potentially allow for increased signal due to accumulation of reporter-gene product, once accumulated in the cell, dynamic changes in reporter-gene expression may be difficult to detect(Fan and Wood, 2007; Almond et al., 2004). It has been shown that wild-type P. pyralis luciferase has a half-life of approximately […] hours in mammalian cells (Thompson et al., 1991). Firefly luciferase reporter-gene assays are also generally considered one of the most sensitive assay types (Wood, 1995; Wood, 1998). Although light produced in a bioluminescence reaction is of lower intensity than that produced during fluorescence emission, this is offset by little to no background light inherent to luminescent assays. Thus the luciferase reporter can be expressed at much lower levels than fluorescent proteins while still providing robust signal. # However, it was initially observed, in 1991, by Thompson et al., that compounds that resemble the substrates of firefly luciferase (FLuc) can act as competitive inhibitors of the enzyme, and that these compounds, upon interaction with luciferase in the cell, can actually stabilize the protein and increase its half-life. Accumulated intracellular FLuc protein can be measured as an increase in luminescence signal, upon addition of detection reagents (which contain high concentrations of FLuc substrates) commonly used in high-throughput screening. In cell-based reporter gene assays that use FLuc as the reporter gene to quantitate the potential influence of a given compound against the target biology, this apparent increase in luminescence can mistakenly be interpreted as identification of a compound that is active against the target of interest. This is the case for the miR-21 FLuc reporter gene assay used to identify inhibitors of the miR-21 pathway (PubChem AID 2289) - compounds of interest will inhibit miR-21 biogenesis/expression or activity, and are identified by causing an increase in luminescence, due to increased FLuc translation. However, FLuc inhibitory compounds that stabilize the FLuc protein will give an identical read-out, making it difficult to distinguish compounds that are active against the target from those active against FLuc. Previous profiling work to determine the prevalence of compounds that affect FLuc enzymatic activity (PubChem AID 411) identified that ~3% of the MLSMR library (then at ~72K) inhibited FLuc. […] Since the MLSMR had grown to ~350K compounds, and since it was expected that a significant percentage of compounds found active in the miR-21 FLuc assay would be FLuc inhibitors, the library was screened for activity against FLuc using a biochemical assay of purified FLuc and KM concentrations of FLuc substrates (D-luciferin and ATP).
NCGC Assay Protocol Summary: Reagents: 50mM Tris acetate, pH 7.5; 10mM Mg acetate; 10uM D-luciferin (Sigma #L9504); 10uM ATP; 0.01% Tween-20; 0.05% BSA; 10nM P. pyralis luciferase (Sigma #L9506) Control compounds used were two known firefly luciferase inhibitors (compounds (2) and (5) in Auld et al., 2010), and DMSO. […]
Note: nearly all actives have a fitted effect of over 55% in size.
Tags give direction and shape of the fitted curve.

Row | Structure (SMILES) | Potency
1 | COCCNC(=O)CSc1ccc(-c2nc3ccccc3[nH]2)cn1 | inconclusive: 26.9 µM [inhibitor, single point]
2 | CCCCCCCC(=O)N1CCN(c2cc3c(cc2F)c(=O)c(C(=O)O)cn3CC)CC1 | inconclusive: 37.9 µM [inhibitor, partial curve, poor fit]
3 | Cc1cccn2c(=O)cc(CSc3nnc(NC(=O)COc4ccc(F)cc4)s3)nc12 | inconclusive: 8.49 µM [inhibitor, partial curve, poor fit]
4 | O=C(O)C1CCN(C(=O)c2csc(-c3ccc4c(c3)CCO4)n2)CC1 | inconclusive: 16.9 µM [inhibitor, partial curve]
5 | CCOC(=O)N1CCN(S(=O)(=O)c2ccc3c(c2)SC(C)C(=O)N3)CC1 (configuration not stated) | inconclusive: 8.49 µM [inhibitor, single point]
6 | COc1ccc(C(C)NS(=O)(=O)Cc2ccccc2)cc1 (configuration not stated) | inconclusive: 26.9 µM [inhibitor, partial curve, poor fit]
7 | O=C(C1CC(c2ccc(F)cc2)=NO1)N1CCCc2ccccc21 (configuration not stated) | inconclusive: 37.9 µM [inhibitor, single point]
8 | Cc1ccc2nc(NC(=O)CSc3nncc(=O)n3N)sc2c1 | inconclusive: 1.69 µM [inhibitor, full curve]
9 | CCSc1ncc(/C=N/Nc2ccc([N+](=O)[O-])cc2)n1C | inconclusive: 1.69 µM [inhibitor, full curve]
10 | CCN1CCN(c2csc3ccc(F)cc3c2=O)CC1 | inconclusive: 26.9 µM [inhibitor, partial curve]
11 | O=C(NCCc1ccccc1)c1cc(-c2ccc(Br)cc2)on1 | inactive
12 | CCOC(=O)C1=C(C)OC(N)=C(C#N)C1c1cc2cc(C)ccc2nc1N1CCCCC1 (configuration not stated) | inconclusive: 26.9 µM [inhibitor, single point]
13 | CCOC(=O)c1cccc(-n2nnc3c(sc4nc(C)c(Br)c(C)c43)c2=O)c1 | inactive
14 | CCc1ccc2c(c1)C(c1ccncc1)=NNC(c1ccccc1)=N2 | inconclusive: 26.9 µM [inhibitor, partial curve, poor fit]
15 | Clc1ccc(-c2nnc3n2CCCCC3)cc1 | inactive
16 | COc1cccc2cc(C(C)=O)oc12 | inactive
17 | CC(=O)Nc1cc(C)c2nc(NC(C)=O)sc2c1 | inconclusive: 33.8 µM [inhibitor, partial curve, poor fit]
18 | COc1ccccc1N1CCN(C(=O)c2c(-c3c(Cl)cccc3Cl)noc2C)CC1 | inactive
19 | Cc1ccc(-c2nc(SCC(=O)Nc3ccccc3OC(F)F)c3c(C)c(C(=O)O)sc3n2)cc1 | inconclusive: 19 µM [inhibitor, partial curve]
20 | COc1cc2nc(CN(C)Cc3ccc(OC)c(OC)c3OC)[nH]c(=O)c2cc1OC | inconclusive: 26.9 µM [inhibitor, single point]
21 | O=C(O)CSc1nccc2ccccc12 | inconclusive: 19 µM [inhibitor, single point]
22 | CSc1ncccc1C(=O)OCC(=O)c1cccc(Br)c1 | inconclusive: 30.1 µM [inhibitor, partial curve, poor fit]
23 | COc1ccc(-c2cn(-c3ccccc3)nc2CO)cc1 | inconclusive: 30.1 µM [inhibitor, single point]
24 | CCOc1ccc(N(CC(=O)Nc2cccc(C)c2)S(C)(=O)=O)cc1 | inconclusive: 19 µM [inhibitor, partial curve]

Row | Structure (SMILES) | Potency
25 | COc1ccc(NC(=O)c2ccc3c(SCC(=O)O)c4c(nc3c2)CCCC4)cc1OC | inconclusive: 30.1 µM [inhibitor, partial curve, poor fit]
26 | CCN1CCN(Cc2ccc(NC(=O)c3ccc(C)c(NC(=O)c4csc(-c5ccncc5)n4)c3)cc2C(F)(F)F)CC1 | inconclusive: 30.1 µM [inhibitor, partial curve, poor fit]
27 | COc1cc(C(=S)N2CCCC2)ccc1OCc1ccc(C)cc1 | inconclusive: 26.9 µM [inhibitor, single point]
28 | CCOC(=O)c1c(C)[nH]c(C(=O)OCC(=O)c2ccccc2)c1C | active: 0.849 µM
29 | Cc1c(Br)c([N+](=O)[O-])nn1C(C)C(=O)Nc1ccc2c(c1)OCO2 (configuration not stated) | inactive
30 | COc1cc(/C=N/Nc2nc(C)nc3c2cnn3-c2ccccc2)ccc1O | inconclusive: 5.36 µM [inhibitor, partial curve]
31 | Nc1nc2ccccc2cc1-c1cccs1 | active: 10.7 µM
32 | Cn1c(SCC(=O)O)nnc1-c1ccc(NC(=O)c2ccc(Cl)c(Cl)c2)cc1 | inconclusive: 37.9 µM [inhibitor, partial curve, poor fit]
33 | NNC(=O)c1sc(-c2ccc(Cl)cc2)cc1N | inconclusive: 15.1 µM [inhibitor, partial curve]
34 | CCOC(=O)C1CCCN(C(=O)c2cc(S(=O)(=O)N(C)C)ccc2N2CCCC2)C1 (configuration not stated) | inactive
35 | CCC(C)[C@H](NC(=O)N1CC(=O)Nc2ccccc21)C(=O)N[C@H](C(=O)O)c1ccccc1 (some centres not stated) | inactive
36 | Cc1cc(C)nc(Nc2ccc(N3CCCC3)cc2)n1 | active: 19 µM
37 | COc1ccc(/C=C/C(=O)NCc2cccnc2)cc1 | inconclusive: 21.3 µM [inhibitor, single point]
38 | COc1ccc(NC(=O)CN(C)S(=O)(=O)c2cccs2)cc1 | inconclusive: 26.9 µM [inhibitor, single point]
39 | COC(=O)c1c(NC(=O)Cc2cccs2)sc2c1CCCC2 | inconclusive: 26.9 µM [inhibitor, single point]
40 | CCOC(=O)/C(=N\Nc1ncnc2ccccc12)c1ccc(C)cc1 | active: 12 µM
41 | Cc1cc(C(=O)CN2CCCCC2)c(C)n1-c1ccc(F)cc1 | inconclusive: 23.9 µM [inhibitor, single point]
42 | O=C(COc1ccc(Cl)cc1Br)NC1CC1 | active: 13.5 µM
43 | COc1cc(NC(=O)c2cc(Cl)ccc2Cl)ccc1NC(=O)c1cc2ccccc2o1 | inactive
44 | c1ccc(Oc2ccc(-c3ccn[nH]3)cc2)cc1 | active: 10.7 µM
45 | c1ccc(C2=Nc3ccccc3NC(c3ccccc3)C2)cc1 (configuration not stated) | inconclusive: 21.3 µM [inhibitor, partial curve, poor fit]
46 | CCOc1ccc2nc(NC(=O)CSc3nc4cccnc4n3C)sc2c1 | inconclusive: 2.39 µM [inhibitor, partial curve, poor fit]
47 | CCOC(=O)c1cnc2ccccc2c1Nc1cccc(C(=O)O)c1 | inconclusive: 26.9 µM [inhibitor, single point]
48 | Cc1cc2c(C)c(C)c(=O)[nH]c2cc1N | inactive

Row | Structure (SMILES) | Potency
49 | O=C(CCc1ccccc1)N(Cc1cccnc1)c1nc2c(F)cc(F)cc2s1 | inactive
50 | O=C(NNC(=O)c1ccccc1[N+](=O)[O-])c1csc(N2CCOCC2)n1 | inconclusive: 0.757 µM [inhibitor, partial curve, poor fit]
51 | CC(C)c1ccc(-c2noc(SCC(=O)N3CCN(c4ccc(F)cc4)CC3)n2)cc1 | inactive
52 | O=C(c1cnn(C(=O)COc2ccccc2F)c1)c1cc(F)ccc1O | inactive
53 | O=C(Cc1cccs1)Nc1nc(-c2ccc(F)cc2F)cs1 | inconclusive: 26.9 µM [inhibitor, single point]
54 | O=C(Nc1ccc2nc(-c3cccs3)[nH]c2c1)c1ccco1 | active: 7.57 µM
55 | CC(C)(C)c1cc(CCC(=O)NNC(=O)c2ccncc2)cc(C(C)(C)C)c1O | inconclusive: 26.9 µM [inhibitor, partial curve, poor fit]
56 | CCCC[N+](CC#Cc1ccccc1)(CCCC)CCCS(=O)(=O)[O-] | inactive
57 | CCNc1nc(N)nc(Oc2ccc(OCC(=O)OC)nn2)n1 | inactive
58 | CCOC(=O)C1(Cc2ccccc2Cl)CCN(C(=O)CN2CCOC2=O)CC1 | active: 10.7 µM
59 | COCC(=O)Nc1ncc(S(=O)(=O)c2ccc([N+](=O)[O-])cc2)s1 | inconclusive: 37.9 µM [inhibitor, partial curve, poor fit]
60 | O=C(CNC(=O)c1ccco1)NCC(=O)OCc1ccc(F)cc1 | inactive
61 | COc1ccc(CNC(=O)COc2ccc(C(=O)c3ccc(F)cc3)cc2)cc1 | inactive
62 | C=CCOc1ccc(/C=C2/C(=O)ON=C2C)cc1OCC | inconclusive: 21.3 µM [inhibitor, partial curve, poor fit]
63 | O=C(NCCN1C(=O)S/C(=C\c2ccc(OC(F)F)cc2)C1=O)C1=COCCO1 | inconclusive: 37.9 µM [inhibitor, partial curve, poor fit]
64 | Cc1sc2ncnc(N/N=C/c3cccc(O)c3)c2c1C | active: 10.7 µM
65 | CC(C)(C)C(=O)Nc1c(Br)c(C2CC2)nn1-c1ccccc1 | inconclusive: 23.9 µM [inhibitor, partial curve, poor fit]
66 | Cc1cc(C)cc(Nc2ccc(C(=O)O)cc2N)c1 | inconclusive: 21.3 µM [inhibitor, partial curve, poor fit]
67 | Cc1ccc(C)c(N2N=C(C(=O)Nc3ccccc3N3CCOCC3)CCC2=O)c1 | inactive
68 | Cc1sc(NC(=O)COc2ccccc2)c(C#N)c1C | inconclusive: 37.9 µM [inhibitor, single point]
69 | COc1ccc(OC)c(NC(=O)Nc2ccc3c(c2)CCC3)c1 | active: 26.9 µM
70 | Clc1ccccc1Cn1cccc1C1=NC(Cc2ccccc2)CO1 (configuration not stated) | inactive
71 | CCN(CC)c1ccc(NC(=O)Nc2cccc3ccccc23)cc1 | active: 2.13 µM
72 | O=C(O)c1ccc(Nc2nc(-c3ccccc3)c3cc(Br)ccc3n2)cc1 | inconclusive: 26.9 µM [inhibitor, partial curve]
